Among all 46,000 compounds or so, about 60 (0.1%) were called active. Not shown: some 3% with an inconclusive outcome. The call rests on the fitted dose curve; in most records, active means well fitted inhibition curve with a large enough effect; inconclusive means small, poorly fitted or top-dose-only effect; inactive means no such curve, though single readings can be large or run the other way. The list shows a part of the results.
Assay: Primary qHTS assay for Inhibitors of ovarian cancer metastasis using an organotypic tumor microenvironment (TME) model. Further: nearly all actives have a fitted effect of over 65% in size.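 On activity change, negative = inhibition: plate controls were DMSO wells for no effect and tomatine positive control wells for full effect.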
Details: SKOV3ip1-GFP adhesion/invasion on 3D omental model, fluorescence; series mostly up to 45.8 µM; activity change, negative = inhibition: at the top concentration
Summary of the method: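 A 3D layer of primary human omental fibroblasts, mesothelial cells, fibronectin and collagen I, grown 48 hr, received SKOV3ip1-GFP cells in serum-free medium plus compounds at 0.36-46 umol/L. After 2 hr RT and 16 hr 37 C, fixed adherent GFP cells were counted; normalized to DMSO and tomatine.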

Activity change, negative = inhibition, inactive:
CCCCSCCCNC(=O)c1c[nH]c2ccc(S(=O)(=O)Nc3cccc(OC)c3)cc2c1=O 6.5%, Cc1ccc(S(=O)(=O)NCC(c2ccc(N(C)C)cc2)N2CCc3ccccc32)cc1 (stereo not drawn) 2.93%, CCOc1ccccc1NC(=O)N1CCc2c(sc3c2CCCC3)C1c1ccccc1 (stereo not drawn) 0.252%, COc1ccc(NC(=O)Nc2cc(-c3cn4cccnc4n3)ccc2OC)cc1 -9.46%, Cc1ccc(CN2c3ccccc3-c3nc(SCC(=O)Nc4c(C)cc(C)cc4C)ncc3S2(=O)=O)cc1 3.29%, CCOc1ccccc1C(=O)N1CC(=O)Nc2ccc(C)cc2C1c1ccccc1 (stereo not drawn) -13%, Brc1ccc2c(c1)NC(c1cccnc1)=NC(c1ccccc1)=N2 -16.8%, CNC1CCC(N(Cc2cccc(-c3ccncc3)c2)C(=O)c2sc3c(F)ccc(F)c3c2Cl)CC1 (stereo not drawn) -3.57%, O=C(OCc1ccccc1Cl)c1ccc(-c2nnn(Cc3ccc(F)cc3)n2)cc1 2.07%, Cc1ccc(CNc2ncnc3onc(C)c23)cc1 23.1%, CCN(CC)c1ccc(NC(=O)CCS(=O)(=O)c2ccc3c(c2)oc(=O)n3C)c(C)c1 2.19%, O=C(CSc1nc2ccccc2nc1Cc1ccccc1F)Nc1cccc(C(F)(F)F)c1 -4.59%, COc1ccc(-c2onc(C)c2C)cc1S(=O)(=O)Nc1cc(Cl)ccc1C -4.21%, Cc1ccc(NC(=O)Cn2c(=O)oc3cc(S(=O)(=O)N4CCCCC4)ccc32)c(C)c1 -8.21%, COc1ccc(-c2cc3nc(C)c(CCC(=O)N4CCN(c5ccccc5F)CC4)c(C)n3n2)c(OC)c1 9.09%, CCc1cccc(C)c1Nc1c(-c2cccs2)nc2nc(C)cc(C)n12 17.4%, COC(=O)c1ccccc1NC(=O)c1cc(CN2CCOCC2)on1 -11.1%, Cc1cn2c(=O)cc(COC(=O)c3ccc(NC(=O)COc4ccc(C)c(C)c4)cc3)nc2s1 -4.41%, COc1cc(C(=O)Nc2ccc(-c3nc4ccccc4o3)c(O)c2)cc(OC)c1OC -6.58%, CC(C)OCCCn1c(=O)c2ccccc2n2c(-c3cc(Cl)ccc3O)nnc12 -15.3%, O=S(=O)(NCC(c1ccccc1)N1CCc2ccccc21)c1ccccc1 (stereo not drawn) -22%, O=c1c2ccccc2n(Cc2c(F)cccc2Cl)c(=O)n1Cc1ccccc1 5.58%, COc1ccc(-c2nc3ccccc3s2)cc1NC(=O)c1cccc([N+](=O)[O-])c1C 0.159%, CC(NC(=O)CSc1nc(-c2cccc(Cl)c2)nc2cc(=O)[nH]n12)c1nc2ccccc2n1C (stereo not drawn) 4.23%, CCc1ccccc1NC(=O)CN1C(=O)c2cccnc2Sc2ccccc21 -19.6%, CCn1c(=O)c2sccc2n2c(CCC(=O)Nc3ccc(OC)cc3OC)nnc12 15.2%, CCc1ccc(-c2cc(C)no2)cc1S(=O)(=O)Nc1cc(OC)c(OC)c(OC)c1 1.46%, Cc1ccc(S(=O)(=O)N2CCN(Cc3ccc4c(c3)OCO4)CC2)cc1 0.173%, Cc1ccc2c(c1)sc1nc(=O)n(-c3ccc(Cl)c(Cl)c3)c(=O)n12 6.98%, COc1ccc(C2=C(C)C(=NCc3ccc(OC(C)C)cc3)NS2(=O)=O)cc1 1.95%, CCCOc1ccc(NC(=O)CC2C(=O)N(c3ccc(F)cc3)C(=O)N2CC(C)C)cc1 (stereo not drawn) 0.649%, CCn1c(=O)cc(OCC(=O)N2CCN(c3cccc(Cl)c3)CC2)c2ccccc21 -11.7%, CNC(=O)c1cc(Oc2ccc(NC(=O)Nc3ccc(Cl)c(C(F)(F)F)c3)cc2)ccn1 4.26%, O=C(COc1ccccc1F)Nc1ccc2nc(SCC(=O)N3CCCC3)sc2c1 -9.89%, COc1cc(NC(=O)Cn2cnc3sc(C)c(S(=O)(=O)N4CCC(C)CC4)c3c2=O)cc(OC)c1OC 1.46%, Cc1ccc2c(=O)c(C(=O)c3ccccc3)cn(CC(=O)Nc3ccccc3C)c2n1 -7.01%, CCn1cc(C(=O)NCCc2ccc(Cl)cc2)c(=O)c2cc(S(=O)(=O)N3CCCCCC3)ccc21 6.19%, Cc1nn(CCCC(=O)Nc2cccc(C(F)(F)F)c2)c(=O)c2nn(-c3ccccc3)c(C)c12 3.31%, CC(NC(=O)CN1C(=O)COc2ccc(Cl)cc21)c1ccccc1 (stereo not drawn) 3.76%, COc1ccc(CCNC(=O)CCCn2c(=O)c3ccccc3n(CC(=O)Nc3ccc(C)cc3Cl)c2=O)cc1OC 12.3%, COc1ccc(Cl)cc1NC(=O)NCc1noc2ccccc12 5.01%, Cc1ccc2c(c1)N(C(=O)N1CCC(C(=O)NCc3cccs3)CC1)CC(C)O2 (stereo not drawn) 5.51%, COc1ccc(CNC(=O)c2cc3c(=O)[nH]c4ccccc4c3n2C)c(OC)c1 4.29%, Cc1ccc(-c2c(C(=O)N(C)Cc3ccccc3)oc(=O)c3ccccc23)cc1 -5.3%, Cc1cccc(N(CC(=O)NCCSc2ccc(Cl)cc2)S(C)(=O)=O)c1C -3.89%, Cc1ccc(-n2ncc(C(=O)N3CCN(C(=O)c4ccco4)CC3)c2C2CCN(C(=O)OC(C)(C)C)CC2)cc1 22.3%, CCS(=O)(=O)c1ncc(Cl)c(C(=O)Nc2c(C(=O)c3ccc(C)cc3)oc3ccccc23)n1 -9.28%, COC(=O)c1nnn(-c2ccc(Cl)cc2)c1C(=O)OC 2.65%, C=C(C)Cn1c(SCC(=O)Nc2cccc(C)c2)nc2sc3c(c2c1=O)CCCC3 1.67%, CC(C)c1ccc(NC(=O)CCNS(=O)(=O)c2ccc3c(c2)oc(=O)n3C)cc1 0.245%, O=C(CN1CCCN(Cc2cccc(F)c2)S1(=O)=O)Nc1ccc2c(c1)OCCO2 4.61%, Cc1cccc(-c2nc(C)c(CCNC(=O)c3cccs3)s2)c1 -26.9%, O=C(c1ccc2c(c1)N(Cc1cccc(Cl)c1)C(=O)c1ccccc1S2(=O)=O)N1CCCCCC1 1.09%, O=C(CSc1oc(-c2ccc(F)cc2)nc1S(=O)(=O)c1ccc(Cl)cc1)c1ccccc1 3.88%, COc1cccc(-c2cn3c(n2)sc2cc(C(=O)NCCC4=CCCCC4)ccc23)c1 1.58%, NC(N)=NC(=O)c1nc(Cl)c(N)nc1N 8.53%, COc1ccc(N2CCN(C(CNC(=O)c3cccc(OC)c3)c3cccnc3)CC2)cc1 (stereo not drawn) 4.17%, COc1ccc(-c2cc(C(F)(F)F)n3nc(C(=O)Nc4sc5c(c4C(=O)OC(C)C)CCCC5)cc3n2)cc1OC 9.39%, CCCCNC(=O)CSC1=Nc2ccccc2C2=NC(CCC(=O)NCc3ccccc3OC)C(=O)N12 (stereo not drawn) -12.1%, CCc1ccc(NC(=O)CSc2cn(CC(=O)N3CCOCC3)c3ccccc23)cc1 -9.72%, Cn1c(C(=O)N2CCCC(C(=O)N3CCN(c4ccccc4)CC3)C2)cc2sccc21 (stereo not drawn) -3.56%, CCN(CC)C(=O)C1CCN(c2cc(C)nc3c(-c4ccc(OC)c(OC)c4)c(C)nn23)CC1 -4%, COc1cc2c(cc1OC)n(CC(=O)Nc1ccccc1)c(=O)n1nc(-c3ccccc3)nc21 -14.5%, COc1ccccc1NC(=O)C1=C(C)Nc2c(C(=O)Nc3cccc(C)c3)cnn2C1c1ccccc1C (stereo not drawn) 18.8%, COc1ccc(CCNC(=O)c2cc(=O)c3c(C)cc(C)cc3o2)cc1OC -0.693%, O=c1oc2c(O)c(O)cc3c(=O)oc4c(O)c(O)cc1c4c23 -2.79%, Cc1nc2ccn(Cc3cccs3)c(=O)c2cc1C(=O)NCc1ccc(Cl)cc1 -2.15%, Cc1ccc(Nc2nc3c(S(=O)(=O)c4ccccc4)nnn3c3ccc(Cl)cc23)c(C)c1 0.634%

outcome, inactive:
Cc1nn2c(=O)cc(COc3ccc(/C=C(\C#N)C(=O)Nc4ccccc4)cc3Cl)nc2s1, CCC(=O)Nc1ccc(CC)cc1-c1nc2ccccc2n(CC(=O)Nc2ccccc2C)c1=O, CCOc1cc(C(=O)NCc2nc(-c3cccc(C)c3)no2)cc(OCC)c1OCC, CCOc1ccc(-c2cc(C(=O)NCCCOC)c3c(-c4ccc(CC)cc4)[nH]nc3n2)cc1, COc1cc2c(cc1OC)C(COc1ccc(F)cc1)N(C(=O)Cc1ccccc1)CC2 (stereo not drawn), CCc1ccccc1NC(=O)CSc1nnc(COc2ccccc2Cl)o1, CCn1c(=N)c(C(=O)NCC2CCCO2)cc2c(=O)n3cc(C)ccc3nc21 (stereo not drawn), Cc1ccc(Cn2c(CNC(=O)Cc3cccc([N+](=O)[O-])c3)nc3cccnc32)cc1, COc1cc(C(=O)N2CCC(c3nc4ccccc4s3)CC2)cc(OC)c1OC, CCCCOc1ccc(CNC(=O)C2CCCN(c3nnc(-n4c(C)ccc4C)s3)C2)cc1 (stereo not drawn), CCNc1ccc(-c2nc(-c3ccncc3)no2)cc1[N+](=O)[O-], CC(=O)Nc1ccc(S(=O)(=O)Nc2cccc(-c3ccc(N4CCCCCC4)nn3)c2)cc1, COc1ccc(C(=O)NCCn2cc(SCC(=O)Nc3ccc(F)cc3)c3ccccc32)cc1, Cc1nc(-c2ccc(S(=O)(=O)NCc3ccc(OC(C)C)cc3)cc2)co1, Cc1nn2c(=O)cc(COC(=O)C(c3ccccc3)c3ccccc3)nc2s1, O=C(NCC(c1cccnc1)N1CCc2ccccc2C1)C(=O)Nc1ccc(F)cc1F (stereo not drawn), Cc1ccc(NC(=O)C2CCN(C(=O)c3cnn(-c4ccccc4)c3-n3cccc3)CC2)cc1C, Cc1cccc(CCNC(=O)c2nn(C)c3c2CSc2ccccc2-3)c1, CCc1ccc(CNc2ncnc3onc(-c4ccc(Cl)cc4)c23)cc1, CCOc1ccc(CN(C(=O)c2cc(=O)c3cc(Cl)ccc3o2)C2CCS(=O)(=O)C2)cc1 (stereo not drawn), COc1ccc(NC(=O)Cn2c(=O)n(-c3ccc(C)c(C)c3)c(=O)c3c4c(sc32)CCCCC4)cc1Cl, Cc1ccc(/C=C/c2nc3ccccc3n2S(=O)(=O)c2cccc(Cl)c2)cc1, O=C(CCn1c(=O)c2cccn2c2cccnc21)NCc1ccc(Cl)cc1, COC(=O)c1ccc(NC(=O)C(=O)NCCc2sc3nc(-c4ccc(OC)cc4)nn3c2C)cc1, CC(CC(=O)NCc1ccc(Cl)cc1Cl)CC1=NS(=O)(=O)c2ccccc2N1 (stereo not drawn)
